# The other results are listed elsewhere or left out.
# B1: ECL (Erythrina cristagalli), Q6YD91 (protein)
# chain: VETISFSFSEFEPGNNDLTLQGAAIITQSGVLQLTKINQNGMPAWDSTGRTLYTKPVHIWDMTTGTVASFETRFSFSIEQPYTRPLPADGLVFFMGPTKSKPAQGYGYLGVFNNSKQDNSYQTLAVEFDTFSNPWDPPQVPHIGIDVNSIRSIKTQPFQLDNGQVANVVIKYDASSKILLAVLVYPSSGAIYTIAEIVDVKQVLPEWVDVGLSGATGAQRDAAETHDVYSWSFHASLPETND
# Key:
# Test in all cases: glycan array binding signal (z-score within array); higher = stronger binding
# Settings in all cases: glycan notation: IUPAC condensed, linker removed
# [1] = biological target: Fuc(a1-2)Gal
# Method in brief: (§1)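 The binding signal is a Z-score computed within each array and averaged over linkers. Arrays of the same protein sequence at different concentrations or buffers were also averaged together. Data originate from 3228 arrays in the Consortium for Functional Glycomics database, kept only where the protein sequence was available.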
# [2] = biological target: Fuc(a1-2)Gal(b1-3)GalNAc
# Method in brief: as §1
# [3] = biological target: Fuc(a1-2)Gal(b1-3)GalNAc(a1-3)[Fuc(a1-2)]Gal(b1-4)Glc
# Method in brief: as §1
# [4] = biological target: Fuc(a1-2)Gal(b1-3)GalNAc(a1-3)[Fuc(a1-2)]Gal(b1-4)GlcNAc
# Method in brief: as §1
# [5] = biological target: Fuc(a1-2)Gal(b1-3)GalNAc(b1-3)Gal
# Method in brief: as §1
# [6] = biological target: Fuc(a1-2)Gal(b1-3)GalNAc(b1-3)Gal(a1-4)Gal(b1-4)Glc
# Method in brief: as §1
# [7] = biological target: Fuc(a1-2)Gal(b1-3)GalNAc(b1-4)[Neu5Ac(a2-3)]Gal(b1-4)Glc
# Method in brief: as §1
# [8] = biological target: Fuc(a1-2)Gal(b1-3)GlcNAc
# Method in brief: as §1
# [9] = biological target: Fuc(a1-2)Gal(b1-3)GlcNAc(b1-2)Man(a1-3)[Fuc(a1-2)Gal(b1-3)GlcNAc(b1-2)Man(a1-6)]Man(b1-4)GlcNAc(b1-4)GlcNAc
# Method in brief: as §1
# [10] = biological target: Fuc(a1-2)Gal(b1-3)GlcNAc(b1-2)Man(a1-3)[Fuc(a1-2)Gal(b1-3)GlcNAc(b1-2)Man(a1-6)]Man(b1-4)GlcNAc(b1-4)[Fuc(a1-6)]GlcNAc
# Method in brief: as §1
# [11] = biological target: Fuc(a1-2)Gal(b1-3)GlcNAc(b1-3)Gal(b1-4)Glc
# Method in brief: as §1
# [12] = biological target: Fuc(a1-2)Gal(b1-3)GlcNAc(b1-3)GalNAc
# Method in brief: as §1
# [13] = biological target: Fuc(a1-2)Gal(b1-3)GlcNAc(b1-3)[Fuc(a1-2)Gal(b1-3)GlcNAc(b1-6)]GalNAc
# Method in brief: as §1
# [14] = biological target: Fuc(a1-2)Gal(b1-3)GlcNAc(b1-3)[Gal(b1-4)GlcNAc(b1-6)]Gal(b1-4)Glc
# Method in brief: as §1
# [15] = biological target: Fuc(a1-2)Gal(b1-3)GlcNAc(b1-3)[Neu5Ac(a2-6)Gal(b1-4)GlcNAc(b1-6)]Gal(b1-4)Glc
# Method in brief: as §1
# [16] = biological target: Fuc(a1-2)Gal(b1-3)GlcNAc6S
# Method in brief: as §1
# [17] = biological target: Fuc(a1-2)Gal(b1-3)[Fuc(a1-4)]GlcNAc
# Method in brief: as §1
# [18] = biological target: Fuc(a1-2)Gal(b1-3)[Fuc(a1-4)]GlcNAc(b1-2)Man(a1-3)[Fuc(a1-2)Gal(b1-3)[Fuc(a1-4)]GlcNAc(b1-2)Man(a1-3)]Man(b1-4)GlcNAc(b1-4)GlcNAc
# Method in brief: as §1
# [19] = biological target: Fuc(a1-2)Gal(b1-3)[Fuc(a1-4)]GlcNAc(b1-2)Man(a1-3)[Fuc(a1-2)Gal(b1-3)[Fuc(a1-4)]GlcNAc(b1-2)Man(a1-6)]Man(b1-4)GlcNAc(b1-4)[Fuc(a1-6)]GlcNAc(b1-4)[Fuc(a1-6)]GlcNAc
# Method in brief: as §1
# [20] = biological target: Fuc(a1-2)Gal(b1-3)[Fuc(a1-4)]GlcNAc(b1-3)[Fuc(a1-3)[Gal(b1-4)]GlcNAc(b1-6)]Gal(b1-4)Glc
# Method in brief: as §1
# [21] = biological target: Fuc(a1-2)Gal(b1-3)[Fuc(a1-4)]GlcNAc(b1-3)[Gal(b1-4)GlcNAc(b1-6)]Gal(b1-4)Glc
# Method in brief: as §1
# [22] = biological target: Fuc(a1-2)Gal(b1-4)Fuc(a1-3)]GlcNAc(b1-2)Man(a1-3)[Fuc(a1-2)Gal(b1-4)[Fuc(a1-3)]GlcNAc(b1-2)Man(a1-6)]Man(b1-4)GlcNAc(b1-4)GlcNAc
# Method in brief: as §1
# [23] = biological target: Fuc(a1-2)Gal(b1-4)Glc
# Method in brief: as §1
# [24] = biological target: Fuc(a1-2)Gal(b1-4)Glc6S
# Method in brief: as §1
# [25] = biological target: Fuc(a1-2)Gal(b1-4)GlcNAc
# Method in brief: as §1
# [26] = biological target: Fuc(a1-2)Gal(b1-4)GlcNAc(b1-2)Man
# Method in brief: as §1
# [27] = biological target: Fuc(a1-2)Gal(b1-4)GlcNAc(b1-2)Man(a1-3)[Fuc(a1-2)Gal(b1-4)GlcNAc(b1-2)Man(a1-6)]Man(b1-4)GlcNAc(b1-4)GlcNAc
# Method in brief: as §1
# [28] = biological target: Fuc(a1-2)Gal(b1-4)GlcNAc(b1-2)Man(a1-3)[Fuc(a1-2)Gal(b1-4)GlcNAc(b1-2)Man(a1-6)]Man(b1-4)GlcNAc(b1-4)[Fuc(a1-6)]GlcNAc
# Method in brief: as §1
# [29] = biological target: Fuc(a1-2)Gal(b1-4)GlcNAc(b1-2)[Fuc(a1-2)Gal(b1-4)GlcNAc(b1-4)]Man(a1-3)[Fuc(a1-2)Gal(b1-4)GlcNAc(b1-2)Man(a1-6)]Man(b1-4)GlcNAc(b1-4)GlcNAc
# Method in brief: as §1
# [30] = biological target: Fuc(a1-2)Gal(b1-4)GlcNAc(b1-3)Gal(b1-4)GlcNAc
# Method in brief: as §1
# [31] = biological target: Fuc(a1-2)Gal(b1-4)GlcNAc(b1-3)Gal(b1-4)GlcNAc(b1-2)Man(a1-3)[Fuc(a1-2)Gal(b1-4)GlcNAc(b1-3)Gal(b1-4)GlcNAc(b1-2)Man(a1-6)]Man(b1-4)GlcNAc(b1-4)GlcNAc
# Method in brief: as §1
# [32] = biological target: Fuc(a1-2)Gal(b1-4)GlcNAc(b1-3)Gal(b1-4)GlcNAc(b1-3)Gal(b1-4)GlcNAc
# Method in brief: as §1
# [33] = biological target: Fuc(a1-2)Gal(b1-4)GlcNAc(b1-3)GalNAc
# Method in brief: as §1
# [34] = biological target: Fuc(a1-2)Gal(b1-4)GlcNAc(b1-3)[Fuc(a1-2)Gal(b1-4)GlcNAc(b1-6)]GalNAc
# Method in brief: as §1
# [35] = biological target: Fuc(a1-2)Gal(b1-4)GlcNAc(b1-3)[Fuc(a1-3)[Gal(b1-4)]GlcNAc(b1-6)]Gal(b1-4)Glc
# Method in brief: as §1
# [36] = biological target: Fuc(a1-2)Gal(b1-4)GlcNAc(b1-6)GalNAc
# Method in brief: as §1
# [37] = biological target: Fuc(a1-2)Gal(b1-4)GlcNAc6S
# Method in brief: as §1
# [38] = biological target: Fuc(a1-2)Gal(b1-4)[Fuc(a1-3)]GlcNAc
# Method in brief: as §1
# [39] = biological target: Fuc(a1-2)Gal(b1-4)[Fuc(a1-3)]GlcNAc(b1-2)Man(a1-3)[Fuc(a1-2)Gal(b1-4)[Fuc(a1-3)]GlcNAc(b1-2)Man(a1-6)]Man(b1-4)GlcNAc(b1-4)[Fuc(a1-6)]GlcNAc
# Method in brief: as §1
# [40] = biological target: Fuc(a1-2)Gal(b1-4)[Fuc(a1-3)]GlcNAc(b1-2)[Fuc(a1-2)Gal(b1-4)[Fuc(a1-3)]GlcNAc(b1-4)]Man(a1-3)[Fuc(a1-2)Gal(b1-4)[Fuc(a1-3)]GlcNAc(b1-2)Man(a1-6)]Man(b1-4)GlcNAc(b1-4)GlcNAc
# Method in brief: as §1
# [41] = biological target: Fuc(a1-2)Gal(b1-4)[Fuc(a1-3)]GlcNAc(b1-3)Gal(b1-4)[Fuc(a1-3)]GlcNAc
# Method in brief: as §1
# [42] = biological target: Fuc(a1-2)Gal(b1-4)[Fuc(a1-3)]GlcNAc(b1-3)Gal(b1-4)[Fuc(a1-3)]GlcNAc(b1-3)Gal(b1-4)[Fuc(a1-3)]GlcNAc
# Method in brief: as §1
# [43] = biological target: Fuc(a1-2)Gal(b1-4)[Fuc(a1-3)]GlcNAc(b1-3)GalNAc
# Method in brief: as §1
# [44] = biological target: Fuc(a1-2)Gal(b1-4)[Fuc(a1-3)]GlcNAc(b1-3)[Neu5Ac(a2-6)Gal(b1-4)GlcNAc(b1-6)]Gal(b1-4)Glc
# Method in brief: as §1
# [45] = biological target: Fuc(a1-2)Gal3S(b1-4)GlcNAc
# Method in brief: as §1
binder,measurement,setting,value
B1,glycan array binding signal (z-score),[1],-0.188
same,glycan array binding signal (z-score),[2],-0.29
same,glycan array binding signal (z-score),[3],-0.092
same,glycan array binding signal (z-score),[4],-0.443
same,glycan array binding signal (z-score),[5],-0.245
same,glycan array binding signal (z-score),[6],-0.245
same,glycan array binding signal (z-score),[7],-0.287
same,glycan array binding signal (z-score),[8],-0.112
same,glycan array binding signal (z-score),[9],0.03
same,glycan array binding signal (z-score),[10],-0.206
same,glycan array binding signal (z-score),[11],-0.22
same,glycan array binding signal (z-score),[12],-0.346
same,glycan array binding signal (z-score),[13],-0.198
same,glycan array binding signal (z-score),[14],-0.197
same,glycan array binding signal (z-score),[15],-0.241
same,glycan array binding signal (z-score),[16],-0.1
same,glycan array binding signal (z-score),[17],-0.305
same,glycan array binding signal (z-score),[18],0.051
same,glycan array binding signal (z-score),[19],-0.246
same,glycan array binding signal (z-score),[20],-0.439
same,glycan array binding signal (z-score),[21],-0.094
same,glycan array binding signal (z-score),[22],-0.239
same,glycan array binding signal (z-score),[23],-0.177
same,glycan array binding signal (z-score),[24],-0.104
same,glycan array binding signal (z-score),[25],0.042
same,glycan array binding signal (z-score),[26],-0.288
same,glycan array binding signal (z-score),[27],0.819
same,glycan array binding signal (z-score),[28],-0.031
same,glycan array binding signal (z-score),[29],0.249
same,glycan array binding signal (z-score),[30],0.293
same,glycan array binding signal (z-score),[31],2.39
same,glycan array binding signal (z-score),[32],0.506
same,glycan array binding signal (z-score),[33],-0.204
same,glycan array binding signal (z-score),[34],-0.127
same,glycan array binding signal (z-score),[35],0.053
same,glycan array binding signal (z-score),[36],-0.165
same,glycan array binding signal (z-score),[37],0.963
same,glycan array binding signal (z-score),[38],-0.145
same,glycan array binding signal (z-score),[39],-0.185
same,glycan array binding signal (z-score),[40],0.055
same,glycan array binding signal (z-score),[41],-0.186
same,glycan array binding signal (z-score),[42],-0.004
same,glycan array binding signal (z-score),[43],1.38
same,glycan array binding signal (z-score),[44],-0.29
same,glycan array binding signal (z-score),[45],-0.224

# — the supplement of paper PMC8728848
